Experimental data published in the supplement of paper PMC11417369.
The other results are listed elsewhere or left out.

Each sequence was assayed on PfAP2-HC AP2 domain (GST-tagged) (assay: gcPBM binding intensity (ln(normalized median fluorescence intensity)); higher = stronger DNA binding).
Summary of the method: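 Using an Agilent 4 × 180k array, primer-extended double-stranded 36-bp intergenic genomic probes and negative controls were exposed for 1 h to GST-fused P. falciparum DNA-binding domains expressed in E. coli. Binding was carried out in 1× PBS with 1% milk, 0.2 mg/ml BSA, 0.5% salmon testes DNA and 0.03% Triton X-100, and protein was detected with Alexa488 anti-GST antibody and a 488 nm scan. Binding intensity is the highest Masliner-normalised natural-log median intensity across replicate spots of either probe orientation.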

Row | Sequence | gcPBM binding intensity (ln)
1 | TTTCCCTACCAAAAGTGTACTTATACATATTTTTAT [XGTACX_site5495] | 9.78
2 | AAAAAAAAAAAAAAAGTGCATTAATAAATTTTAATA | 9.33
3 | ACATCTATGTATAATACACACACTAATATATAATTG [CACACA_site5134] | 9.98
4 | ACATATTATTCTTCTTGTACACATAAATTTTATAAA [XGTACX_site299] | 9.63
5 | ATGACGTAGTGGTGTACACACATGGTACCTTTATTC [CACACA_site1547] | 10.1
6 | AAAAAAATATTCAAAGCATGCCTATTTACACATATT [TGCATGCA_site806] | 9.77
7 | TCTTATAATTTACCTACACACAGGAAATATATAAAT [CACACA_site294] | 9.65
8 | TCAGAAATATTACAAAGTACATGCAACGAAAATTTC [XGTACX_site5061] | 9.62
9 | ACACAATGTAGTGTATAAATACAATAAAAGGTTGTA [TGCATGCA_negctrl_site251] | 10.3
10 | TGATATTTAAATTTTGCACACGCATATGAAATTAGG [CACACA_site1034] | 9.61
11 | ATATTTATAATTTTTTGTACACATTTTTTAAAGATA [XGTACX_site1784] | 9.62
12 | TATAAGAGAAGAAGAAAAAAAAGGTTTCTATAGAAA [XGTACX_negctrl_site421] | 9.68
13 | CATATAGTAATATATACACACACTTGTCTTGTAAAA [CACACA_site8238] | 10
14 | AAGAAGCATAAATGTACACACATATTTATATATTAA [CACACA_site1332] | 9.85
15 | ATAGTATACAGACACACACACACACGGATATAAATA [CACACA_site6914] | 10.6
16 | ATATATATATATATATGTACTAAATATTCATCCTTA [XGTACX_site6039] | 9.75
17 | AAGTTTAAGAAATAATTCATATTTACTTCCATCCTC [GTGCAC_negctrl_site494] | 9.57
18 | TTTTTTTTTTTTTTTGCACACACATTGAATTATTAT [CACACA_site198] | 9.96
19 | TACATATAAATATATAAATATAAATAAATAAATAAA [XGTACX_negctrl_site180] | 9.7
20 | AAATGGAAAAGGTGTACACAAAAAAAAGGGAAAAGC [CACACA_site5331] | 10.1
21 | CTTTATATATAGTGTACACATTAAACAAATCTCAAT [CACACA_site5845] | 9.58
22 | TTACCAAAAACCTCAAGTACAAAAAATCCCTAATAT [XGTACX_site2313] | 9.65
23 | TATATATGTATATATGGTACAGAATATTCTACATTA [XGTACX_site5077] | 9.65

Row | Sequence | gcPBM binding intensity (ln)
24 | CATCCACATATATGTACACACATATATATATATATA [CACACA_site2964] | 9.95
25 | TACCACATCGGTAAATGTACTTATAAAAAAAAAAAA [XGTACX_site3364] | 9.13
26 | CAATCATTTTATTGTTGTACAGTAATTATGAATTCA [XGTACX_site7508] | 9.37
27 | ATTTATGATATGTAAACATGCATAAAAATTTCAAAA [TGCATGCA_site858] | 9.6
28 | AATGGGTTAGCACATACACACCAATATATTATATAT [CACACA_site9011] | 9.87
29 | TATAAACTTAATTTGAGTACTTAATAATAATTTTGT [XGTACX_site3730] | 9.49
30 | TATATATATATATTATGTACGTATCAGTTTGTATGT [XGTACX_site695] | 9.92
31 | CACGACATTAACAATACATGCAGAAAAACAAAAAAT [TGCATGCA_site689] | 9.7
32 | TTATAAATTAGAGGTACACACAAAAAAAAAAAGAAA [CACACA_site6740] | 9.94
33 | ATTTTTAATATTATTACACACACTAAAAAAAAAAAA [CACACA_site1067] | 9.79
34 | TTGGTACCTATAGATACACACATATATACATATATA [CACACA_site3402] | 9.69
35 | AAAAAAAAAACACGCGCACACACACCCACCCACCCA [CACACA_site8689] | 10.9
36 | ACTAATAAAGGTGTAATACACACTATAAAAAGGAAT [CACACA_site1124] | 10
37 | TATAAAATTTTTAAAAGTACATATTTTACATAATAC [XGTACX_site2193] | 9.16
38 | TTTTTATCAACAAATAATACCATAACTCATATTTAT [CACACA_negctrl_site740] | 9.41
39 | ATTATTCCATATTATTGTACTTTAATTTTTTAAACC [XGTACX_site2960] | 9.65
40 | TTTTTTCTTTATTATGGTACGTATAAAAAAATTATA [XGTACX_site3433] | 9.49
41 | GAGAGGTATCAAAAATGTACACATATATATATGTAT [XGTACX_site5611] | 9.7
42 | ATATATAATATATATTGTACAGGTATGTCTATAAAT [XGTACX_site2243] | 9.75
43 | ATATATTTTTTTTTTTCACACATTAGGATTCATATA [CACACA_site5758] | 9.64
44 | TAATAATATATAAAAAGTACATAACAAGATATGAAA [XGTACX_site4921] | 9.84
45 | ATCATATGTATGGTGGTGCATTATGCATGAATTTTA [GTGCAC_site9798] | 9.73
46 | AGAAAAAAATAATCATCACACACGGAGAATGTCCAA [CACACA_site2314] | 10.1

Row | Sequence | gcPBM binding intensity (ln)
47 | GAAAATAACTAAAATTGTACAAAGAAACATATATTT [XGTACX_site6484] | 9.79
48 | TATATATATCTGTATACACACATACAAATATGTAAA [CACACA_site5950] | 9.73
49 | GATATTCATTATATATGTACATATATGTAATATATA [XGTACX_site2210] | 9.67
50 | TATTAAAGCACCCATGCACACACACTAAGGAAAAGA [CACACA_site7961] | 10.8
51 | TGTTGATTTATCCTGTGTACGGATATATATCTTTCA [XGTACX_site7826] | 9.66
52 | TAAAGAATATTATAAACACACACTTTATAAAGAATT [CACACA_site114] | 9.91
53 | GTAATTATACATATTACACACTCTCTTGATCTTTTT [CACACA_site7756] | 9.87
54 | TATATAAAGAAACACACACACACCTTATAATTATTA [CACACA_site4062] | 11.2
55 | TATATAAACCCACCTACACACACAACGTAAATGCAT [CACACA_site8702] | 10.1
56 | ATTATTATATTCAAATGTACTTAATAAACATTTTAA [XGTACX_site3023] | 9.38
57 | TTTATCTAAATATGTGTGCACTCGTTAATTTTTTTT | 10.1
58 | TGAATAAAATATTATACACACATATGTATATAACAT [CACACA_site974] | 9.75
59 | TTAATTTTTTTTTAAACACACATTTTTTTATTTAAG [CACACA_site2738] | 9.67
60 | TATTAATTTTTTTTTTTTTTTTTTTTTTTTTTTTTT [CACACA_negctrl_site1329] | 9.26
61 | GTTATAAATAATAAATAAATAATCAAATGAAGAATG [CACACA_negctrl_site653] | 9.84
62 | TCCTTATTTCATATTTTTAAATAATACAAAAAAAAA [CACACA_negctrl_site773] | 9.06
63 | ATATATATTTATAATCGTACGTACCTAACAATACAA [XGTACX_site4510] | 9.62
64 | AAATAAAAAAAAGCCTGTACATGTTCATAAATTTTT [XGTACX_site7925] | 9.65
65 | GAATATTAAATATTATCACACACATAATTATTTCCA [CACACA_site8730] | 10.2
66 | TTCTATTTATATGTGGGTACTAATTTTTTTTCTTTT [XGTACX_site7104] | 9.98
67 | CTTAAATTAATTTGGGTGCATATATTTGTACACATT [GTGCAC_site9948] | 9.69
68 | ATAAATATACCAATCGGTACACATTTATACAAACAA [XGTACX_site7484] | 9.68
69 | AATAAATACACATACACACACGACGCTAGTATATGT [CACACA_site6627] | 10.6

Row | Sequence | gcPBM binding intensity (ln)
70 | AGAATAAATATGTGGTGTTATAGTATTAATGTTAAT [TGCATGCA_negctrl_site62] | 9.77
71 | GCTATAAATATAATCACACATAAATATATAATATAT [CACACA_site5144] | 9.63
72 | AGGAGGATAGTTCACAGTACCCAGGAAATCTGCGGA [XGTACX_site4928] | 9.51
73 | TTTATTTTCCAAAGGGTGCACATAGTTAAAACGATA [GTGCAC_site9855] | 9.52
74 | TATGCAATAAAATATACACACAATATACTTATATAT [CACACA_site7691] | 9.84
75 | ATCTATATTCATAATACACACATTCTGTAGCATTAT [CACACA_site7058] | 9.88
76 | TGATTAATTTTTAAATGTACTTAAAAATATACTTAT [XGTACX_site2872] | 9.47
77 | TATATCATATAAAACCGTACATACATACTTAATTGT [XGTACX_site6822] | 9.69
78 | AACAGGTCATAATTTACACACTATATATTTTATTAT [CACACA_site670] | 9.89
79 | AGAAAACATATGTTTTGTACTTAAGAAAAAAAAAAA [XGTACX_site4231] | 9.59
80 | TAACATATGGGACACACATGCAACTGTTATATGTCC [TGCATGCA_site959] | 10.2
81 | TTTTATATGTTATATACACACATATAAATAAATATA [CACACA_site7418] | 9.5
82 | AAAAATAAATAAATATGTACATATATACATATATAT [XGTACX_site5892] | 9.77
83 | AAAAAAAAATTAAAATGTACACATAAAAAAAAAAAA [XGTACX_site794] | 9.81
84 | TATTTATACCTATACACACACACACGGATATTTATA [CACACA_site7123] | 10.8
85 | GATAAAATCACTGGTGCATGTAGATATATAATATTA [TGCATGCA_site589] | 9.65
86 | ATATGCTTATTGTAAAGTACATTATTATTTTTCCTA [XGTACX_site5479] | 9.63
87 | AATTAACAAAAACACACACACACACCGACAAAAAAA [CACACA_site4444] | 10.9
88 | TACAAATATATATGCACACACATATACATACAGATA [CACACA_site5238] | 10
89 | TGATGAAAATCTACATGAATGTTTTTATATCTATAT [GTGCAC_negctrl_site139] | 9.66
